Test results from paper PMC4336329 (PLoS ONE, 2015).
Screen size: about 310,000 compounds; about 14,000 (4.5%) showed an effect of 50% or more. The effect is printed as a negative number. The list shows a part of the results.

Each molecule was assayed against human ether-à-go-go-related gene (hERG) potassium channel (human, UniProt Q12809) (assay: primary screen, population patch clamp on CHO cells stably expressing hERG).
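Further: peak tail current of the secondary pulse compared with the same well before compound.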

Chain of human ether-à-go-go-related gene (hERG) potassium channel (Q12809 whole entry, looked up): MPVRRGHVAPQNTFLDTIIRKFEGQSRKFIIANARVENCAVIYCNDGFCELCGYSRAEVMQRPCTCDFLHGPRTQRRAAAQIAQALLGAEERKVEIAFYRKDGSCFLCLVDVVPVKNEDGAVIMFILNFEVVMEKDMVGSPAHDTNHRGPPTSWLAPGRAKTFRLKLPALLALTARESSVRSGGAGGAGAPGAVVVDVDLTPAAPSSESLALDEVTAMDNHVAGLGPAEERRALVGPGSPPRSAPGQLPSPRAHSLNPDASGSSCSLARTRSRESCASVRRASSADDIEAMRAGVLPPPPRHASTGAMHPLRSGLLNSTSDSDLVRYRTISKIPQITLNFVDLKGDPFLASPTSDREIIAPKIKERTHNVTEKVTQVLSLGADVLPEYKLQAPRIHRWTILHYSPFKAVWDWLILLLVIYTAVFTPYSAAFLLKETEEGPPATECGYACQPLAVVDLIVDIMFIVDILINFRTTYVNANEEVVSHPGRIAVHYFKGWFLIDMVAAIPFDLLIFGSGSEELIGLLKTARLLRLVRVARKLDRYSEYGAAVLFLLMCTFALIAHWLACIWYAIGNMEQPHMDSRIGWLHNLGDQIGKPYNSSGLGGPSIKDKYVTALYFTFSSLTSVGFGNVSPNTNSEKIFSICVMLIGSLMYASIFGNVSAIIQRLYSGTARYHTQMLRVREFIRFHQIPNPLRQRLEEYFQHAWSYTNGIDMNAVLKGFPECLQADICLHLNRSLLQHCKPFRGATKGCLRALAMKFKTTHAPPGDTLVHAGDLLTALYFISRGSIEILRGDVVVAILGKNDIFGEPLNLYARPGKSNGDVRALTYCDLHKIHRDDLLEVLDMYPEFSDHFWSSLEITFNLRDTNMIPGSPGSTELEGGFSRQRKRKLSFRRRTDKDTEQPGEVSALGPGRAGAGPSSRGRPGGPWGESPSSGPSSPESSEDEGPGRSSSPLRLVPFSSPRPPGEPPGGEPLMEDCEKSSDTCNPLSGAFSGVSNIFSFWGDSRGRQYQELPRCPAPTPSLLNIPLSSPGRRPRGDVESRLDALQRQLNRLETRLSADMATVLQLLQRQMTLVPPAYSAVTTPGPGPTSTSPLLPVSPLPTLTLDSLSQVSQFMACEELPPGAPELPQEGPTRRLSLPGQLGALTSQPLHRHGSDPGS

In order of falling “hERG current change (%, negative = inhibition) at 10uM” value:
1. O=S(=O)(NCC(c1ccco1)N1CCN(c2ccccc2F)CC1)c1ccc2c(c1)OCCO2 (stereo not shown)  20.4%
2. Cc1ccccc1OCCCC(=O)Nc1ccc(S(=O)(=O)Nc2onc(C)c2C)cc1  20.2%
3. CCCCCC(=O)Nc1nc(C)c(-c2csc(Nc3cc(Cl)ccc3OC)n2)s1  16.8%
4. O=C(CN1c2ccccc2Sc2ccccc21)NNC(=S)Nc1ccc(Cl)cc1  15%
5. CCc1ccc(OCC(=O)Nc2ccc(-c3nc4ccccc4o3)c(O)c2)cc1  14.7%
6. CCN1CCN(S(=O)(=O)c2ccc(Cl)c(C(=O)Nc3ccccc3N3CCCCC3)c2)CC1  12.8%
7. Cc1ccc(NC(=O)CSc2nnc(-c3ccncc3)o2)cc1C  12.5%
8. Cc1cccc(CNC(=O)Cn2ccc3cc(S(=O)(=O)N4CCCC4)ccc32)c1  11.4%
9. CC(C)C[C@@]12C(=O)N(c3cccc(Cl)c3)C(=O)N1[C@H](c1ccc(Cl)cc1)[C@@H]1C(=O)N(C3CCCCC3)C(=O)[C@@H]12  11.2%
10. CCOc1c(C)cnc2c1c(=O)n(CC(=O)NCC1CCCO1)c(=O)n2C (stereo not shown)  10.1%
11. CC(C)NC(=O)CSc1nnc(COc2ccccc2Cl)o1  9.76%
12. COc1ccc(/C=N/NC(=O)CNC(=O)c2ccc3c(c2)OCCO3)c(C(=O)O)c1OC  9.5%
13. COc1cccc(C2C(C(=O)c3cc4ccccc4o3)=C(O)C(=O)N2c2cc(C)on2)c1 (stereo not shown)  7.91%
14. C=C(C)C1CC=C(C)/C(=N\NC(=S)Nc2ccc(C)cc2)C1 (stereo not shown)  7.06%
15. Cc1ccc2c(c1)c1nnc(SCC(=O)Nc3ccc(N(C)C)cc3)nc1n2CC(=O)O  6%
16. Cc1cccc(/C=C2\Sc3ccc(C(=O)NCC4CCCO4)cc3N(C)C2=O)c1 (stereo not shown)  5.21%
17. O/N=C1\CC/C(=N\O)c2nn(-c3ccccc3Cl)nc21  4.25%
18. O=C(CCS(=O)(=O)Cc1ccccc1F)NCc1ccccc1Cl  3.62%
19. Cc1ccc(NC(=O)CSc2nnc(CNC(=O)c3ccco3)n2C)cc1  3.01%
20. CC(=NCc1ccc2c(c1)OCO2)c1c(O)n(Cc2ccccc2)c(=O)[nH]c1=O  2.69%
21. CC(C)(C)OC(=O)N1CCC(C(=O)N[C@H](Cc2ccccc2)C(=O)O)CC1  2.21%
22. CCOC(=O)c1ccc(NC(=O)c2cc(=O)[nH]c3ccccc23)cc1  1.88%
23. O=C(c1ccc(Cl)s1)N1CCCC1  -0.0803%
24. Cc1cc(C)c(C)c(C(=O)CSc2nnc(-c3ccc4[nH]c(C)c(C)c4c3)o2)c1C  -1.56%
25. Cc1ccc(N=Cc2nc(/C=C/c3cccc([N+](=O)[O-])c3)oc2O)cc1  -2.61%
26. COc1ccc2nc(SCC(N)=O)[nH]c2c1  -2.83%
27. O=C(CC1Sc2ccccc2NC1=O)Nc1cccnc1 (stereo not shown)  -4.19%
28. Cc1ccc(C(C(=O)NC2CCCCC2)N(C(=O)c2csnn2)C2CCCC2)o1 (stereo not shown)  -7.71%
29. CCOCCCN(Cc1cc2cc(C)cc(C)c2[nH]c1=O)C(=O)N(CC)CC  -8.98%
30. CCn1c(CCNC(=O)c2ccc(C)cc2)n[nH]c1=S  -9.11%
31. CCOc1ccccc1N(CC(=O)Nc1cccc2ccccc12)S(C)(=O)=O  -10.5%
32. CCc1ccc(N(C(=O)c2snc(C(N)=O)c2N)C(C(=O)NC2CCCC2)c2ccco2)cc1 (stereo not shown)  -11.4%
33. Cc1ccc(C(=O)NC2CC2)cc1S(=O)(=O)N1CCOCC1  -12.6%
34. O=C1CN(Cc2cc(=O)oc3cc4c(cc23)CCC4)CCN1  -13.9%
35. CC(C)(C)OC(=O)NC(CNCc1ccccc1)Cc1ccccc1 (stereo not shown)  -15%
36. O=C(NC1CCN(C(=O)Nc2ccc(F)cc2)CC1)c1cccc(F)c1  -16.1%
37. CN1CCN(c2nc3c(c(=O)[nH]c(=O)n3C)n2CCSc2nnnn2-c2ccccc2)CC1  -17%
38. COC(=O)C1=C(c2ccccc2OCc2ccccc2)C[C@@H]2CC[C@H]1N2C(=O)NC1CCN(Cc2ccccc2)CC1  -21.6%
39. CCOC(=O)N1CCN(S(=O)(=O)N2CCCC(C(=O)NCc3ccc(OC)cc3OC)C2)CC1 (stereo not shown)  -23.1%
40. CN(C)C(=S)Nc1ccc(S(=O)(=O)N2CCCCC2)cc1  -25.2%
41. CC(C)Cc1cc(C(=O)NCc2ccco2)no1  -29.8%
42. OCC1(Cc2ccccc2)CCN(Cc2cnc(-c3ccc(Cl)cc3)nc2)CC1  -47.1%
43. COc1cc(C(=O)N2CCN(c3ccccc3F)CC2)ccc1OCC(=O)N1CCOCC1  -60.9%
